In paper PMC4336329 (PLoS ONE, 2015):
Among all 310,000 compounds or so, about 14,000 (4.5%) showed an effect of 50% or more. Effects have a minus sign here. The list shows a part of the results.

Biological target: human ether-à-go-go-related gene (hERG) potassium channel (human, UniProt Q12809)
Assay: primary screen, population patch clamp on CHO cells stably expressing hERG
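Note: peak tail current of the secondary pulse compared with the same well before compound.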

Sequence of human ether-à-go-go-related gene (hERG) potassium channel (Q12809 whole entry, looked up): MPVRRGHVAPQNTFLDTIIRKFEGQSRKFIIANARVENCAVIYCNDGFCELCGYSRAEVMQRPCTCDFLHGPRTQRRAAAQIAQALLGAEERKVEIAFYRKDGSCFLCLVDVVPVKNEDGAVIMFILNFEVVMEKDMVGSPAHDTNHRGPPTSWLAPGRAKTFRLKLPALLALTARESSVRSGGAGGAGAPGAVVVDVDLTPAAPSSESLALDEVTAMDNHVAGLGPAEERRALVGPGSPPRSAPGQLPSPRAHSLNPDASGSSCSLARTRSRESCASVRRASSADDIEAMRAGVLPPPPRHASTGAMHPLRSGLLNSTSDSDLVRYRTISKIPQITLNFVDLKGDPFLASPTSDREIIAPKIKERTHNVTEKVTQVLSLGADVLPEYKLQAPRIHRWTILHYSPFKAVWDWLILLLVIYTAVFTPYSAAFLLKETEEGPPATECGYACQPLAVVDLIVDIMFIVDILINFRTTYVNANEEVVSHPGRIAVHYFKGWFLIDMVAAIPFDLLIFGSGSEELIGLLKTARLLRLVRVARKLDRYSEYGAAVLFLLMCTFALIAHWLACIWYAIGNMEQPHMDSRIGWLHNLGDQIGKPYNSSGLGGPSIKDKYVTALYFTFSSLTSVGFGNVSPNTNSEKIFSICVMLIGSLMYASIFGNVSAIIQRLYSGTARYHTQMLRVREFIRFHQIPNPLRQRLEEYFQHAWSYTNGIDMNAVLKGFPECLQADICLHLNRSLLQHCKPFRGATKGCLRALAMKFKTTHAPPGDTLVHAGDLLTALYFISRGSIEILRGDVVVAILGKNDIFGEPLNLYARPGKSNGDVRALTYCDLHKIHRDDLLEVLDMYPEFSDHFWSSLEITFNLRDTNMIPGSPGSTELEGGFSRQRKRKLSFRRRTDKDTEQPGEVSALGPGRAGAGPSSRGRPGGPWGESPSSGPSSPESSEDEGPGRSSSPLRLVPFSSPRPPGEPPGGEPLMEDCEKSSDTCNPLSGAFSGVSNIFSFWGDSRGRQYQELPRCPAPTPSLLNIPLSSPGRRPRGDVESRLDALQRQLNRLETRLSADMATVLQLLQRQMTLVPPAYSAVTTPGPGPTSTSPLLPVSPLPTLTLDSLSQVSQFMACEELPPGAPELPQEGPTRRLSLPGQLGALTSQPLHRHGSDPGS

SMILES	hERG current change (%, negative = inhibition) at 10uM
CCOc1ccccc1OCCN1CCCC1	9.51%
O=C(c1ccc2c(=O)n(Cc3ccccc3Cl)c(=S)[nH]c2c1)N1CCOCC1	9.51%
Cc1ccccc1N(CC(=O)NCCSCc1ccccc1)S(C)(=O)=O	-10.7%
O=C(N/N=C/c1c[nH]c2ccc(Br)cc12)c1ccc2c(c1)OCO2	21.1%
COc1ccc(OC)c(C2NC(=O)CCC2[N+](=O)[O-])c1 (centres unmarked)	16.4%
Cc1nc(-c2ccccn2)nc(SCC(=O)N2CCOCC2)c1Cl	16.4%
CCN(Cc1nc2cc(Cl)ccc2c(=O)[nH]1)C(=O)c1cccc(OCc2c(C)noc2C)c1	-57.4%
CCc1nnc(NS(=O)(=O)c2ccc(NC(=O)c3cc(Cl)ccc3[N+](=O)[O-])cc2)s1	15.2%
CS(=O)(=O)Nc1cccc(C2=NN(C(=O)CCCC(=O)O)C(c3cccs3)C2)c1 (centres unmarked)	15%
COCC1CCCN(C(=O)c2ccc3nc(Cc4cccc(Cl)c4)oc3c2)C1 (centres unmarked)	-12.6%
Cc1cc(/C=N\NC(=O)CC(=O)NC2CCCCC2)c(C)n1-c1cccc(Cl)c1Cl	-19.6%
COc1ccc2occ(C(=O)c3ccc(N)cc3)c2c1	2.02%
Cc1cccc(-n2nc(C(=O)Nc3ccccc3)n3c(=O)cc(-c4ccccc4)nc23)c1	4.51%
CC(=O)Oc1ccc(-c2ccc(C(=O)Nc3cccc(S(=O)(=O)N4CCOCC4)c3)cc2)cc1	26.5%
Cc1cc(C)cc(C(=O)OCC(=O)NCCNC(=O)COC(=O)c2cc(C)cc(C)c2)c1	14.2%
Clc1ccc(Nc2ncnc3c2nnn3Cc2ccccc2)cc1	-2.53%
C/C(=N\NC(=O)c1ccc(Cn2cc(Br)cn2)o1)c1cccc(NC(=O)C(C)C)c1	-19.1%
CNc1oc(C)nc1S(=O)(=O)c1ccc(C)cc1	10.6%
COc1ccccc1NS(=O)(=O)c1ccc2nc(CCl)[nH]c2c1	13.2%
COc1ccc(NC(=O)Cn2c(=O)n(-c3ccccc3)c(=O)c3oc4ccccc4c32)c(OC)c1	0.0652%
COC(=O)CN1C(=O)C(C)(C)Oc2ccc(C(=O)Nc3ccccc3F)cc21	6.87%
OCCN(Cc1ccccc1)Cc1ccc(F)c(F)c1	-14.9%

SMILES	hERG current change (%, negative = inhibition) at 10uM
O=C(NC(C1CC1)C1CC1)C1CCC(=O)N(CCCN2CCCC2=O)C1 (centres unmarked)	-2.49%
CCC(=O)Nc1sc(C(=O)Nc2ccccc2OC)c(C)c1C(=O)OC	12.5%
CCOC(=O)c1ccccc1NC(=O)Cn1c(-c2nonc2N)nc2ccccc21	-9.37%
CN(C)c1ccc(-c2nnc(-c3ccccc3F)o2)cc1	-8.59%
O=C(c1ccccc1)N1CCN(c2n[nH]c(=O)[nH]c2=O)CC1	-0.701%
COc1ccc(-n2ncc3c(N4CCCCC4)ncnc32)cc1	-4.13%
CCN(CC)C(=O)CSc1nnc(-c2ccc(S(=O)(=O)NCc3ccccc3Cl)cc2)o1	-3.93%
COc1ccccc1N(C)S(=O)(=O)c1ccc(C(=O)OCC(=O)N2CCC2)cc1	2.78%
COC(=O)C1=C(c2ccc(C(C)=O)cc2)C[C@@H]2CC[C@H]1N2C	-17.5%
COc1ccc(NC(=O)CCNS(=O)(=O)c2cccc(C(C)=O)c2)cc1S(N)(=O)=O	18.1%
COc1cccc(CNC(=O)CCS(=O)(=O)c2cccc3nonc23)c1	11.2%
CCC1CN(C(=O)NCc2ccc(C)cc2)c2ccccc2O1 (centres unmarked)	-36.5%
CC1=C(C(=O)Nc2ccc(C)cc2C)C(c2ccc(Cl)cc2)n2nc(C(=O)OC(C)C)nc2N1 (centres unmarked)	5.71%
CC(=O)N1CCN(C(=O)COc2ccc(Br)cc2)CC1	-17.8%
O=c1[nH]c(=S)[nH]c2nc(-c3cccs3)cc(C(F)(F)F)c12	19.7%
CCCSc1ccc(C(=O)Nc2ccc(F)cc2F)cn1	14.5%
CSc1nc2ccc(NC(=O)C3=NNC(=O)CC3)cc2s1	5.4%
O=C(CCCN1C(=O)c2ccccc2C1=O)NCCc1ccc(OC(F)F)cc1	-65.3%
COc1cccc(NC(=O)N2CCCC2C(=O)Nc2cc(C)ccc2OC)c1 (centres unmarked)	-2.44%
CC1CCc2sc3ncnc(N4CCN(CCO)CC4)c3c2C1 (centres unmarked)	-33.6%
COc1cc(/C=C/c2c([N+](=O)[O-])c(=O)n(C)c(=O)n2C)cc(OC)c1OC	8.3%
CC(=O)c1ccc(NC(=O)C(=O)c2cn(CC(=O)N3CCCCC3)c3ccccc23)cc1	6.65%

SMILES	hERG current change (%, negative = inhibition) at 10uM
COc1cccc(C(=O)Nc2nnc(C(C)C)s2)c1	1.38%
O=C(Nc1ccc(F)cc1)N(CCCN1CCOCC1)Cc1cc2cc3c(cc2[nH]c1=O)OCCO3	-25.1%
CC(=O)c1ccc(OCC(O)CN2CCN(S(=O)(=O)c3c(C)c(C)cc(C)c3C)CC2)cc1 (centres unmarked)	20.5%
Cc1[nH]n(-c2ccccc2)c(=O)c1N=Nc1c(Cl)cccc1Cl	16.3%
CCn1cc(C(=O)NCc2ccc3c(c2)OCO3)c(=O)c2cc(S(=O)(=O)N3CCOCC3)ccc21	-12.6%
CCOC(=O)NC(NCc1ccccc1Cl)(C(F)(F)F)C(F)(F)F	-4.23%
N#C/C(=C\c1cn[nH]c1-c1ccccc1)C(=O)NC1CCCCCC1	-34%
CCCc1nc2sc3c(=O)n(N)cnc3c2c2c1CCCC2	9.79%
COC(=O)c1cc(CSc2ncnc3sccc23)oc1C	16.6%
CNCC(C)COc1ccccc1OCc1ccccc1.O=C(O)/C=C\C(=O)O (centres unmarked)	-32.9%
CC(Oc1ccc(F)cc1)C(=O)Nc1ccccc1C(=O)NC1CC1 (centres unmarked)	-27.6%
Cc1ccccc1-c1cc(-c2ccccc2O)on1	-4.7%
NC(=O)[C@@H]1CCCN1Cc1nc(-c2ccccc2)no1	11.5%
CCC(C)(C)NC(=O)C1c2ccccc2Oc2ccccc21	23%
CCNc1c(NC(=O)c2ccc3c(c2)OCO3)c(=O)oc2ccccc12	18.6%
CCOC(=O)Nc1ccc(S(=O)(=O)N2CCC(C)CC2)cc1	-7.86%
CCn1c(=S)sc2nc(C)sc21	1.32%
CCC(=O)N1CCCc2cc(S(=O)(=O)N3CCN(C4CCCCC4)CC3)ccc21	-27%
O=C(CSc1ncnc2sc3c(c12)CCCC3)c1ccco1	6.66%
COc1cccc(-c2nc(COc3ccc(Cl)cc3Cl)no2)c1	4.12%
O=C(c1cccc(Cl)c1)N1CCC2(CC1)NCCc1[nH]cnc12	19.6%
CCN(CC)C(=O)c1ccc(Cn2cc([N+](=O)[O-])cn2)o1	-13.1%

SMILES	hERG current change (%, negative = inhibition) at 10uM
CC(=O)Nc1ccc(C2C(=O)c3ccccc3C2=O)cc1	21.4%
C/C=C(\C)C(=O)NCCN1C2=NC[C@@H](C)N2C[C@H]1Cc1ccc(O)cc1	12.9%
O=C(/C=C/c1ccco1)N1CCN(C/C=C/c2ccccc2)CC1	-58.8%
CC(Sc1nc(-c2ccccc2)cc(C(F)(F)F)n1)C(=O)Nc1sc2c(c1C(N)=O)CCC2 (centres unmarked)	8.35%
COc1ccc(/C=N/NC(=O)CNC(=O)c2ccc(S(=O)(=O)N3CCOCC3)cc2)c(OC)c1	-6.47%
Cc1cc(C)c(S(=O)(=O)c2ccccc2C)c(OCCN(C)C)n1	-20.2%
Cc1ccccc1NC(=O)Cn1nc(-c2ccccc2)nc1-c1ccccc1	-7.03%
CC(=O)c1cccc(S(=O)(=O)N(CCCO)Cc2cc3ccc(C)cc3[nH]c2=O)c1	-5.88%
C/C(=C\c1ccco1)CN1CCC(N2CCC(C(=O)N3CCOCC3)CC2)CC1	-78.9%
C=CCNc1nc2c(c(=O)[nH]c(=O)n2C)n1CCCc1ccccc1	-4.44%
COc1cc(-c2noc(C)c2C(=O)NCCc2c[nH]c3ccccc23)cc(OC)c1OC	0.397%
N#CC1=C2SCN(Cc3ccccc3)CN2C(=O)CC1c1ccccc1F (centres unmarked)	10.9%
COc1ccc(S(=O)(=O)N2CCCC2C(=O)Nc2nnc(-c3cccnc3)s2)cc1 (centres unmarked)	5.55%
CCCC1(C(=O)OCC)NC(c2ccc(N(C)C)cc2)C2C(=O)N(c3ccccc3)C(=O)C21 (centres unmarked)	-10.3%
CC1(C)Cc2c(sc(NC(=O)/C=C/C(=O)O)c2C#N)CO1	20%
CCOc1ccccc1NC(=S)NCC1CCCO1 (centres unmarked)	0.812%
CCC1CCCCN1S(=O)(=O)c1ccccc1[N+](=O)[O-] (centres unmarked)	20.3%
N#Cc1ccc(CSCC(=O)NN=C2CCCC2)cc1	4.16%
CCC1CN(C(=O)N2CCC(C(=O)NCc3ccc(C)o3)CC2)c2cc(C)ccc2O1 (centres unmarked)	-18.1%
C=CCOc1c2ccc(C(=O)NC3CCCc4ccccc43)cc2nn1C (centres unmarked)	-1.02%
